From US5606038A, “Amphiphilic polyene macrolide antibiotic compounds” (Competitive Technologies, Inc., priority 1995, dated 1997)

System: red blood cells
Experiment: K+ release from red blood cells
Conditions: relative to critical micelle concentration

SMILES | concentration to release 50% of the K+ from red blood cells
COCCOCCOCCOCCOCCOCCNC(=O)[C@H]1[C@@H]2C[C@@H](O[C@@H]3O[C@H](C)[C@@H](O)[C@H](N)[C@@H]3O)/C=C/C=C/C=C/C=C/C=C/C=C/C=C/[C@H](C)[C@@H](O)[C@@H](C)[C@H](C)OC(=O)C[C@H](O)C[C@H](O)CC[C@@H](O)[C@H](O)C[C@H](O)C[C@](O)(C[C@@H]1O)O2 [Example II] | essentially at their critical micelle concentration
COCCNC(=O)[C@H]1[C@@H]2C[C@@H](O[C@@H]3O[C@H](C)[C@@H](O)[C@H](N)[C@@H]3O)/C=C/C=C/C=C/C=C/C=C/C=C/C=C/[C@H](C)[C@@H](O)[C@@H](C)[C@H](C)OC(=O)C[C@H](O)C[C@H](O)CC[C@@H](O)[C@H](O)C[C@H](O)C[C@](O)(C[C@@H]1O)O2 [Example I] | essentially at their critical micelle concentration
